In paper PMC5312077:
These are yes or no findings as the source states them, for the method shown. In cells and extracts the contact can be indirect. Some results given as binding are weak or reduced against the parent protein; the word gives no strength. For part of these data: Where a sequence is shown, tags or fusion partners need not be part of it.

Amino acid sequences for entries named in this document (tags omitted). A change or cut given only in a name is not applied to a line headed by its entry.
UniProt P27986: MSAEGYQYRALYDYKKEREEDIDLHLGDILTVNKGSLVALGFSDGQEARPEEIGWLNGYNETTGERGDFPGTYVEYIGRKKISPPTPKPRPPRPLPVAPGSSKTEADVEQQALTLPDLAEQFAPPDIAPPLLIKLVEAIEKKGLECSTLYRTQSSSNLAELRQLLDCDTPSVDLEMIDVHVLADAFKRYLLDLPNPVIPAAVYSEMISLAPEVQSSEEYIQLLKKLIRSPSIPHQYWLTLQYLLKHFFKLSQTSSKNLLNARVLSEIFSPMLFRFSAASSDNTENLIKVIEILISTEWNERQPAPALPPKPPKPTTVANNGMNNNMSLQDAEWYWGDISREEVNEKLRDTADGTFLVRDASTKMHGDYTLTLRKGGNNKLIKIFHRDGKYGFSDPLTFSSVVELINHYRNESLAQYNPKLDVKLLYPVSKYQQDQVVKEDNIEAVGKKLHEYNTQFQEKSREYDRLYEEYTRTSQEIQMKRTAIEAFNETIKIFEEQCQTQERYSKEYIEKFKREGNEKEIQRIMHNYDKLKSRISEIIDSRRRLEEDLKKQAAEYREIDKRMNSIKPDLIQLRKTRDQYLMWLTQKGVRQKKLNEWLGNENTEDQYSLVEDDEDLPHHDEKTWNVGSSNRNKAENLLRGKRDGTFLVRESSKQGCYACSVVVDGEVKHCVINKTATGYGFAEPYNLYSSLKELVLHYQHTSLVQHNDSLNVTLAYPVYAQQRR

Columns and labels:
[1] = target: GST tagged full length PAK4 (UniProt O96013); test: pull-down; GST-PAK4 or GST-PAK4 derivatives on glutathione beads as bait; lysates of HEK293T cells expressing GFP-tagged p85alpha constructs; blot with anti-GFP; only the target purified
[2] = target: T1, GST tagged PAK4PxxP (proline rich region of PAK4, amino acids 31-322) (UniProt O96013); test: as above
T1 sequence: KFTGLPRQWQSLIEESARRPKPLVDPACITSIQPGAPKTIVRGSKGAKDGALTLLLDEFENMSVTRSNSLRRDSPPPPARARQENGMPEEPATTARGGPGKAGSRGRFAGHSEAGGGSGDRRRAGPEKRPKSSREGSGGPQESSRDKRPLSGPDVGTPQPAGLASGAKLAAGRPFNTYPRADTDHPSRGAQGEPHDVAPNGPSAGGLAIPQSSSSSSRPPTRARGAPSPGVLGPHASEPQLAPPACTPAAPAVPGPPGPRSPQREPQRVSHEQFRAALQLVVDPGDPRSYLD

[3] = target: T2, GST tagged PAK4ΔPxxP (PAK4 with the PXXP region deleted, amino acids 1-34 plus 319-591) (UniProt O96013); test: as above
T2 sequence: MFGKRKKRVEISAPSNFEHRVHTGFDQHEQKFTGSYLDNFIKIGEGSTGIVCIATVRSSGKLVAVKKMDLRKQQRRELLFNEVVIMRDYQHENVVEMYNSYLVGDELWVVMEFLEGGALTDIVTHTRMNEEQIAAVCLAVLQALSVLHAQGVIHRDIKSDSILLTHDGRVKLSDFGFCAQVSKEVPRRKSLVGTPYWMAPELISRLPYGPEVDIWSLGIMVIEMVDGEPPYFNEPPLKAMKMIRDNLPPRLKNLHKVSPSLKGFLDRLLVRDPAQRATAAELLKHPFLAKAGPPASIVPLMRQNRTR

[4] = target: GST tagged full length PAK4 (UniProt O96013); test: pull-down; PaTu8988T cell lysates incubated with GST or GST-PAK4; pull-down probed for endogenous p85alpha; only the target purified

Substance | binding [1] | binding [2] | binding [3] | binding [4]
GFP tagged full length p85α (regulatory subunit of PI3K) (from UniProt P27986 1-724) | binds | binds |  | 
GFP-p85alpha ΔSH3 (missing the SH3 domain, amino acids 80-724) (from UniProt P27986 80-724) (domain or fragment) | no binding | no binding | no binding | 
GFP-p85alpha-SH3 domain alone (amino acids 1-85) (from UniProt P27986 1-85) (domain or fragment) | binds | binds | no binding | 
endogenous p85α (from UniProt P27986 1-724) |  |  |  | binds
